According to PubChem BioAssay AID686978 (National Center for Advancing Translational Sciences (NCATS), 2013):
In all, about 420,000 compounds went through this assay and about 64,000 (15%) were called active. This list was built around the results that the source calls inconclusive (neither active nor inactive); the mix of calls is not that of the screen. Calls come from the whole dose curve; as a rule, active = well fitted inhibition curve with a large enough effect; inconclusive = small, poorly fitted or top-dose-only effect; inactive = flat fitted curve, though single readings scatter. No potency is given beside an inconclusive call; the fits are too rough.

Assay: qHTS for Inhibitors of human tyrosyl-DNA phosphodiesterase 1 (TDP1): qHTS in cells in absence of CPT; note: nearly all actives have a fitted effect of over 55% in size
Settings: DT40 Tdp1-/- hTDP1 cells, no CPT, ATP luminescence, 48 h; activity change, negative = growth inhibition: at 46.2 µM (top of the series) unless noted
How it was run: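 Compound effects on proliferation are scored in DT40 Tdp1-/-;hTDP1 cells in the absence of CPT. ATP levels (CellTiter-Glo luminescence) are recorded after a ≥48 hr, 37 °C incubation.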
% is set by controls: 0 for no effect and ±100 for the full control effect; potency is the fitted concentration of half-maximal effect; tags give direction and shape of the fitted curve.

| Compound | activity change, negative = growth inhibition | Potency |
| --- | --- | --- |
| O=C(O)C(C(=O)/C=C/c1ccco1)=C1SCCS1 | inconclusive: -35.2% [inhibitor] |  |
| Cc1ccc(CN(C(=O)COc2c(C)cccc2C)C2CCS(=O)(=O)C2)o1 (stereo unspecified) |  | inconclusive [inhibitor, single point] |
| COc1ccc(NS(=O)(=O)c2cc(OCC(N)=O)c(C)cc2Cl)cc1 |  | inconclusive [inhibitor, partial curve, poor fit] |
| CN1CCN(C(=O)C2CCCN(S(=O)(=O)c3ccc(Br)cc3)C2)CC1 (stereo unspecified) |  | inconclusive [inhibitor, partial curve] |
| Cc1ccc(NC(=O)C(Cc2c[nH]c3ccccc23)NC(=O)OCC(C)C)cc1 (stereo unspecified) |  | active: 23.1 µM |
| Clc1ccc(C2[C@H]3CN(Cc4cccnc4)[C@H](c4ccccc4)C34CC2(c2cccnc2)C4)cn1 (stereo partly specified) |  | inconclusive [inhibitor, single point] |
| COc1cc(NC(=O)c2nc(-c3ccncc3)no2)cc(OC)c1OC |  | inconclusive [inhibitor, partial curve] |
| COc1ccc(Oc2ncc3nc(-c4ccc(F)cc4)c(=O)n(C)c3n2)cc1 | inactive: -9.75% |  |
| CCCS/C(N)=N/N=C/c1ccccc1O |  | active: 18.4 µM |
| CCn1c(/C=C/Nc2ccccc2)[n+](CC)c2ccc(C(=O)OCC(F)(F)F)cc21 |  | active: 14.6 µM |
| COc1ccc(/C=C\C(=O)NC2CC(=O)N(c3ccccc3)C2)cc1OC (stereo unspecified) | inactive: -22.7% |  |
| COCCN(C(=S)Nc1ccc(C)cc1C)C(C)c1ccco1 (stereo unspecified) |  | inconclusive [inhibitor, single point] |
| CCCN=C(C)c1c(-c2ccccc2)[nH]n(-c2nc3ccccc3s2)c1=O |  | active: 25.9 µM |
| CC(NCC1(N2CCOCC2)CCCCC1)C(=O)N1CCc2ccccc21 (stereo unspecified) | inconclusive: -30.5% [inhibitor] |  |
| CC(C)(C)C(=O)NCCc1csc2nc(-c3ccc(F)cc3)nn12 |  | active: 14.6 µM |
| Cc1ccc(Cl)cc1N1CCN(CCNC(=O)Nc2ccccc2Cl)CC1 |  | active: 11.6 µM |
| C/C(=C\C(=O)c1ccccc1)NNc1nc2ccccc2s1 |  | inconclusive [inhibitor, single point] |
| CCOc1ccc(NC(=O)CSc2nc(NS(=O)(=O)c3ccc(C)cc3)cc(=O)[nH]2)cc1 | inconclusive: -31.5% [inhibitor] |  |
| CC(=O)Nc1cccc(C(=O)NNC(=O)c2ccc(NS(=O)(=O)c3cccs3)cc2)c1 |  | inconclusive [inhibitor, full curve, poor fit] |
| CCc1cc(C(=O)OC)c(NC(=O)CN2CCN(C(=O)C3CCCO3)CC2)s1 (stereo unspecified) | inactive: -24.1% |  |
| COC(=O)[C@]12CCCCC=C1N(CCC1=CCCCC1)C(=O)[C@H](CC(=O)NCc1ccc(C)o1)C2 |  | inconclusive [inhibitor, partial curve, poor fit] |
| Cc1cc2c(=O)n(C)c(SCC(=O)Nc3ccccc3)nc2s1 |  | inconclusive [inhibitor, single point] |

| Compound | activity change, negative = growth inhibition | Potency |
| --- | --- | --- |
| CCN(CCCNS(=O)(=O)c1ccc2c(c1)CCN2C(C)=O)c1cccc(C)c1 |  | inconclusive [inhibitor, single point] |
| C=CCNc1nc2c(c(=O)n(C)c(=O)n2C)n1CC(=C)C |  | inconclusive [inhibitor, single point] |
| CCCC(=O)Nc1ccc(Br)c(Cl)c1 |  | inconclusive [inhibitor, partial curve] |
| CN(C(=O)c1ccc(NC(=O)Cc2ccc(NC(=O)C3CCN(C(=O)C4CCCC4)CC3)cc2)cc1)C1CCCC1 |  | inconclusive [inhibitor, partial curve, poor fit] |
| COc1ccc(-c2csc(NC(=O)COc3ccc(N(C)S(=O)(=O)c4ccc(C)cc4)cc3)n2)cc1 |  | active: 6.51 µM |
| C[C@H](CO)N1C[C@H](C)[C@@H](CN(C)C(=O)c2cnccn2)Oc2cc(C#CCC3CCCC3)ccc2S1(=O)=O |  | inconclusive [inhibitor, single point] |
| CN(Cc1cccc(F)c1)C(=O)Cc1ccc(S(=O)(=O)N2CCOCC2)s1 |  | inconclusive [inhibitor, partial curve, poor fit] |
| Cn1nnnc1SCC(=O)N1N=C(c2cccs2)CC1c1cccs1 (stereo unspecified) |  | inconclusive [inhibitor, single point] |
| COc1ccc(N2CCN(CCCNC(=O)C(=O)c3c(C)[nH]c4ccccc34)CC2)cc1 |  | inconclusive [inhibitor, single point] |
| O=C(CCS(=O)(=O)c1cccc2nsnc12)Nc1ccc(F)cc1 |  | inconclusive [inhibitor, single point] |
| COc1ccc(NC(=O)CCS(=O)(=O)c2ccc(OC)cc2)cc1 |  | inconclusive [inhibitor, partial curve] |
| Cc1ccc(NC(=O)CCS(=O)(=O)c2ccc(Br)cc2)nc1 |  | inconclusive [inhibitor, single point] |
| CSc1ccc(CN(C)CC(=O)Nc2c(F)cccc2F)cc1 |  | inconclusive [inhibitor, single point] |
| O=C(Nc1ccc(Cl)cn1)C1CCCN(c2ncnc3c2nc2n3CCCCC2)C1 (stereo unspecified) |  | active: 20.6 µM |
| CCC(c1nnnn1Cc1ccco1)N(CCc1ccccc1)Cc1cc2cc(C)ccc2[nH]c1=O (stereo unspecified) |  | inconclusive [inhibitor, single point] |
| CCN(C(=O)CN1C(=O)S/C(=C\C=C\c2ccccc2)C1=O)C1CCS(=O)(=O)C1 (stereo unspecified) |  | active: 1.46 µM |
| Cc1nc(S/C(=C\c2ccc(OCc3ccccc3Cl)cc2)C(=O)O)n[nH]1 |  | inconclusive [inhibitor, single point] |
| O[C@@H]1CN(C2CCN(Cc3ccccc3)CC2)CC[C@H]1N1CCCCCC1 |  | inconclusive [inhibitor, single point] |
| CCC1Sc2ccc(S(=O)(=O)CCC(=O)Nc3c(Cl)cc(OC)cc3OC)cc2NC1=O (stereo unspecified) |  | inconclusive [inhibitor, single point] |
| CC(=O)NC1=CC(=O)c2nonc2C1=O |  | inconclusive [inhibitor, full curve, poor fit] |
| CCCOC(=O)c1ccc(Oc2cn[nH]c2-c2ccc(OCC)cc2O)cc1 |  | inconclusive [inhibitor, single point] |
| O=C(c1ccccc1)N1c2ncnn2C2(CCCCC2)[C@@H]2CCCC[C@@H]21 |  | inconclusive [inhibitor, single point] |

| Compound | activity change, negative = growth inhibition | Potency |
| --- | --- | --- |
| CCCS(=O)(=O)N1CCN(C(=O)c2ccc(-c3ccccc3)cc2)CC1 | inconclusive: -31% [inhibitor] |  |
| C=C1NN(CC2CC2)C(=O)N1c1ccc(OCc2ccccc2)cc1 |  | active: 12.6 µM |
| OC(c1ccccc1)(c1nc(-c2ccc3ccccc3c2)cs1)C(F)(F)F (stereo unspecified) |  | inconclusive [inhibitor, single point] |
| COc1cccc(/C=N/NC(N)=S)c1OCc1ccccc1Cl |  | active: 4.11 µM |
| COC(=O)CCc1c(C)c(C(=O)c2cccc(OC)c2OC)c2ccccn12 |  | inconclusive [inhibitor, full curve] |
| COc1ccc(C(N)c2csc(Nc3nncc4ccccc34)n2)cc1 (stereo unspecified) |  | inconclusive [inhibitor, single point] |
| C=CCSc1nc2ccccc2n1C(=O)/C=C/c1ccc(OC)c(OC)c1 |  | active: 3.55 µM |
| COc1cccc(COC(=O)c2cc(S(=O)(=O)N3CCCCC3)ccc2N2CCOCC2)c1OC |  | inconclusive [inhibitor, single point] |
| COc1ccc(N2CCN(CCCNC(=O)CC3Oc4ccc(C)cc4NC3=O)CC2)cc1 (stereo unspecified) |  | inconclusive [inhibitor, partial curve] |
| Cc1ccc(-n2nnc(C(=O)Nc3cc(F)ccc3F)c2C)cc1F |  | inconclusive [inhibitor, partial curve] |
| Cc1ccc(C)c(OCC(=O)NNC(=O)CCN2CCN(c3ccccc3)CC2)c1 | inactive: -23.2% |  |
| CCn1cc(C(=O)NCc2ccc(OC)cc2)c(=O)c2ccc(C)nc21 | inactive: -18.8% |  |
| COc1ccccc1-c1noc(CCCC(=O)NC2CCCC2)n1 | inconclusive: -33% [inhibitor] |  |
| Fc1cc(Br)ccc1NC(=S)Nc1cccnc1 | inactive: -4.8% |  |
| O=C(O)c1ccccc1Nc1ccc([N+](=O)[O-])c2nonc12 |  | inconclusive [inhibitor, single point] |
| Cn1c(=O)[nH]c(=O)c2c1nc(N1CCNCC1)n2Cc1cccc2ccccc12 |  | inconclusive [inhibitor, partial curve] |
| O=C(c1cnn2c(C(F)(F)F)cc(-c3ccc(F)cc3)nc12)N1CCc2ccccc2C1 |  | active: 20.6 µM |
| Cc1ccc2c(c1)C(c1ccc(F)cc1)N(C(=O)c1ccc(OC(C)C)cc1)CC(=O)N2 (stereo unspecified) |  | inconclusive [inhibitor, single point] |
| O=C(CCC(=O)N1CCOc2ccccc21)Nc1ccc(F)cc1F |  | inconclusive [inhibitor, single point] |
| Cc1cccc(N2CCN(C(=O)CCS(=O)(=O)c3ccc(Br)cc3)CC2C)c1 (stereo unspecified) |  | inconclusive [inhibitor, single point] |
| NS(=O)(=O)c1ccc(NS(=O)(=O)c2ccc3c(c2)OCCO3)cc1 |  | inconclusive [inhibitor, partial curve] |
| Cc1c(C(=O)NC2CCCCCC2)sc2ncnc(NCC3CCCO3)c12 (stereo unspecified) |  | inconclusive [inhibitor, single point] |
